Test results published in PubChem BioAssay (NCI).
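At the TGI there is no net growth.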 The source holds more than one record for some entries. This list holds those alone. An entry can have further records. Values that stand side by side are repeats (runs, samples, wells, individuals or studies). A tag in brackets gives the origin of a value. Letters count within one entry.

System: MOLT-4 leukemia
Assay: NCI anticancer screen, dose series, 384-well format

Compound: Cn1cc(-c2nc(N[C@@H]3CCCC[C@@H]3N)c(F)c3c2C(=O)NC3)cn1
- TGI: 849 nM [sample A, 1 test] and 10.8 µM [sample B, 1 test]
